In PubChem BioAssay AID488969 (Vanderbilt High Throughput Screening Facility, 2010):
Whole data set: some 110,000 compounds, median “z-score” near -0.1, cut for the highest 2% near 2. The list shows a part of the results.

These compounds were tested against Metabotropic glutamate receptor 8 (Rattus norvegicus) (UniProt P70579) (assay: rat mGluR8 modulators via GIRK flux, primary screen, cell-based, thallium flux, HTS (AID 488969)). Conditions: HEK293 rat mGluR8, GIRK (G protein-gated inwardly rectifying potassium channel) thallium flux, FluoZin2; at 10 µM; stronger effect = higher value; submaximal glutamate (EC20) added with thallium.
Sequence of UniProt P70579 (P70579 whole entry, looked up): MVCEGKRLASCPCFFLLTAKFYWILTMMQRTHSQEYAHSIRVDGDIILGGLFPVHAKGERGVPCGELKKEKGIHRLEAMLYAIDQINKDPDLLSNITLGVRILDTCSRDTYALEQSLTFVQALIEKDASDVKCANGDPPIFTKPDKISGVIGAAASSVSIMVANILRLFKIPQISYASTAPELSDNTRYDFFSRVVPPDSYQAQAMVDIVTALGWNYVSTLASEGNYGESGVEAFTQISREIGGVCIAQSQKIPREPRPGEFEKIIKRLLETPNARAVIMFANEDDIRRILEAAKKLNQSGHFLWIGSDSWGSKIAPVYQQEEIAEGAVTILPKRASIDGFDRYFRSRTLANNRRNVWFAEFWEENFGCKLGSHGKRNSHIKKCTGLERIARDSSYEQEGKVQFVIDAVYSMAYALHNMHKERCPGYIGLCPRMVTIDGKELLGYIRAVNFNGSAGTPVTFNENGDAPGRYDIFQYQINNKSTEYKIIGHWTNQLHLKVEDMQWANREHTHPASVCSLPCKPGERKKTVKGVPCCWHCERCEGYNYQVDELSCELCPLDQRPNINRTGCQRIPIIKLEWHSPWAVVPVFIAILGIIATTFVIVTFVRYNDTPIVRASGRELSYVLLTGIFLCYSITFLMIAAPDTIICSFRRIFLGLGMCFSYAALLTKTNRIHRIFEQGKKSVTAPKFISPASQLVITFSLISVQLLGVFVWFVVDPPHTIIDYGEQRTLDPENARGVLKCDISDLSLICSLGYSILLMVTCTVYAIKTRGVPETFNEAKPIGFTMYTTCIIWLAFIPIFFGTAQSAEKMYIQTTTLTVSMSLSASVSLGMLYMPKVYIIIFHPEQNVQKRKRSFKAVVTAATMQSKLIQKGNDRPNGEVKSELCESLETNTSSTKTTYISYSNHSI

Row | SMILES | z-score
1 | O=C1NN(c2ccc(F)c(Cl)c2)C(=O)/C1=C\c1cccc(OC(=O)c2cccs2)c1 | 0.335
